# Values joined by “and” are separate entries in the source; they are usually repeats but may differ in a detail not shown here. Equal values may be shown once. The campaign covered roughly 48,000 compounds. About 120 (0.25%) were called active. This list was built around the results that the source calls inconclusive (neither active nor inactive); the mix of calls is not that of the screen. Calls come from the whole dose curve; as a rule, active = well fitted activation curve with a large enough effect; inconclusive = small, poorly fitted or top-dose-only effect, or another doubt; inactive = no such curve, though single readings can be large or run the other way. Where the call is inconclusive, the potency comes from a doubtful curve fit.
# Assay: Primary qHTS for Identification of Small Molecule Activators of Huntingtin-Antisense Promoter Activity; note: nearly all actives have a fitted effect of over 55% in size
# Settings: HEK293 HTT-AS promoter firefly luciferase reporter, 24 h; activity change, positive = activation: at 57.5 µM (top of the series), percent change from vehicle, -100% = no light unless noted
# How it was run: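 Firefly luciferase readout (Dual-Glo, 10 min RT) after 24 h, 37 °C compound exposure (final up to 57.5 uM) of HEK293 reporter cells cultured 24 h beforehand; PTC124 at 50 uM final as control inhibitor; activity scaled vehicle 0%, zero RLU -100%.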
# Potency is the fitted concentration of half-maximal effect; tags give direction and shape of the fitted curve.
Structure (SMILES),Potency,"activity change, positive = activation"
Cc1cccc(-n2ncc3c(NC4CCCC4)ncnc32)c1,"inconclusive: 0.891 µM [activator, partial curve, poor fit]",
Fc1ccc(-c2cn3cc(Cc4ccc(Cl)cc4)sc3n2)cc1,"inconclusive: 1 µM [activator, partial curve, poor fit]",
Cc1c(Cl)cccc1NC(=O)c1ncn(-c2ccccc2)n1,"inconclusive: 2 µM [activator, full curve, poor fit]",
CCc1noc(-c2ccc(N3CCCCC3C)c([N+](=O)[O-])c2)n1 (stereo not drawn),"inconclusive: 2.24 µM [activator, full curve, poor fit]",
O=C(CSc1nccn1Cc1ccc(Cl)cc1)Nc1ccc2c(c1)OCCO2,"inconclusive: 2 µM [activator, full curve]",
O=C(Nc1ccc2oc(-c3ccc4ccccc4c3)nc2c1)c1ccccc1F,"inconclusive: 1 µM [activator, partial curve, poor fit]",
O=C(Nc1cccc(Cl)c1)c1cnc[nH]1,"inconclusive: 14.1 µM [activator, partial curve, poor fit]",
COc1ccc(CNC(=O)CN(c2cc(C)cc(C)c2)S(=O)(=O)c2c(C)[nH]c(=O)[nH]c2=O)cc1,inactive,
O=C(COc1ccccc1)N(Cc1cccnc1)c1nc2ccc(F)cc2s1,"inconclusive: 10 µM [activator, partial curve]",
COc1ccc(CCNC(=O)C2CCCN(c3nc4c(C)cc(C)cc4s3)C2)cc1OC (stereo not drawn),"inconclusive: 1.26 µM [activator, partial curve, poor fit]",
CCc1ccc2oc(C(=O)Nc3nonc3CC)c(C)c2c1,"inconclusive: 11.2 µM [activator, partial curve]",
Cc1ccc(-n2c(-c3ccco3)nc3c(cnn3-c3ccc(C)cc3)c2=O)cc1,inactive,
Cc1cccc(NC(=O)c2c(N)sc3c2CCC(C)C3)c1 (stereo not drawn),"inconclusive: 14.1 µM [activator, partial curve]",
Cc1ccccc1Nc1c(-c2ccc(N3CCOCC3)cc2)nc2ccc(Cl)cn12,"inconclusive: 2 µM [activator, full curve, poor fit]",
COCc1cc(C)nc2sc(C(=O)Nc3cc(C)ccc3F)c(N)c12,"inconclusive: 10 µM [activator, partial curve]",
COc1ccc(-n2nnc(-c3nc(-c4cccs4)no3)c2N)cc1,"inconclusive: 1 µM [activator, full curve, poor fit]",
O=C(Nc1ccc(C(=O)N2CCN(c3ccccc3)CC2)cc1)c1nsc2ccccc12,"inconclusive: 0.562 µM [activator, full curve, poor fit]",
CCCN(CCC)CCNC(=O)C1CCN(c2nc3ccc(CC)cc3s2)CC1,"inconclusive: 1.78 µM [activator, full curve, poor fit]",
Cc1cc(-c2nc3ccccc3s2)ccc1NC(=O)c1cc(Cl)ccc1Cl,"inconclusive: 2.24 µM [activator, full curve]",
COc1cc(-c2noc(-c3cc(C)[nH]n3)n2)cc(OC)c1OC,"inconclusive: 39.8 µM [activator, single point]",
COc1cccc(-c2ccnc3[nH]n(-c4ccccc4)c(=O)c23)c1,"inconclusive: 10 µM [activator, partial curve, poor fit]",

Structure (SMILES),Potency,"activity change, positive = activation"
O=C(Cn1c(=O)nc(-c2ccccc2)c2cc(Cl)ccc21)NCCCc1ccccc1,inactive,
Nc1c(C(=O)Nc2ccc(Cl)cc2F)sc2nc(-c3cccs3)ccc12,"inconclusive: 10 µM [activator, partial curve, poor fit]",
Cc1cccc(C(=O)Nc2cccc(C(=O)OCc3cc(=O)n4nc(C5CC5)sc4n3)c2)c1,"inconclusive: 1.78 µM [activator, partial curve, poor fit]",
O=C(Nc1ccc(F)cc1F)C1CCCN1S(=O)(=O)c1cccc2nsnc12 (stereo not drawn),inactive,
Cc1oncc1C(=O)Nc1ccc(C(F)(F)F)cc1,"inconclusive: 3.55 µM [activator, partial curve, poor fit] and inconclusive: 3.06 µM [activator, full curve]",
CC(=O)Oc1ccc2c(c1)CC[C@@H]1[C@@H]2CC[C@]2(C)[C@@H](O)CC[C@@H]12,inactive,
CCOC(=O)Cn1cnc2c(cnn2-c2ccc(C)c(C)c2)c1=O,"inconclusive: 14.1 µM [activator, partial curve, poor fit]",
O=C(NCCCN1CCN(c2cccc(Cl)c2)CC1)c1nnc(Cc2ccc(F)cc2Cl)o1,"inconclusive: 0.1 µM [activator, full curve, poor fit]",
Cc1ccc(N2C(=O)C(CC(=O)Nc3ccccc3)N(CCC3=CCCCC3)C2=O)cc1 (stereo not drawn),"inconclusive: 3.16 µM [activator, full curve]",
CCOC(=O)CSc1ncnc2c1c(-c1ccccc1)cn2-c1ccc(OC)cc1,"inconclusive: 1.41 µM [activator, partial curve, poor fit]",
CCOc1cc(C(=O)Nc2ccc(-c3nc4ccccc4s3)cc2Cl)cc(OCC)c1OCC,"inconclusive: 15.8 µM [activator, partial curve, poor fit]",
COc1ccc(-c2cc(C(=O)Nc3cccc(O)c3)on2)cc1OC,"inconclusive: 28.2 µM [activator, single point]",
CC(C)c1ccc2oc3nc(N)c(C(=O)O)cc3c(=O)c2c1,"inconclusive: 0.273 µM [activator, full curve]",inconclusive: 41.2% [activator]
COc1cccc([C@@H](C)NCCCc2ccccc2Cl)c1,"inconclusive: 43.2 µM [activator, single point]",
CCN(CC)c1ccc2cc(-c3nc(-c4ccccc4F)no3)c(=O)oc2c1,"inconclusive: 7.94 µM [activator, partial curve, poor fit]",
CCO[C@@H]1O[C@H](C(COCc2ccccc2)OCc2ccccc2)[C@H](OCc2ccccc2)[C@H]1O (stereo partly drawn),inactive,
CC(C)c1ccc(CN(C(=O)c2cc3ccccc3oc2=O)C2CCS(=O)(=O)C2)cc1 (stereo not drawn),"inconclusive: 12.6 µM [activator, partial curve]",
O=C1Nc2ccccc2Oc2cc(Oc3ccccc3)ccc21,inactive,
NC(=O)c1cccc2[nH]c(-c3ccc([C@H]4CCCN4)cc3F)nc12,"inconclusive: 7.69 µM [activator, partial curve]",
CCc1ccc(NC(=O)c2ccc(-c3ccccc3)s2)cc1,"inconclusive: 2 µM [activator, full curve, poor fit]",
Cc1cc(C)c(NC(=O)C2CCN(c3nc4ccccc4n4cccc34)CC2)c(C)c1,inactive,

Structure (SMILES),Potency,"activity change, positive = activation"
CC1CCCN(c2ncnc3c2cnn3-c2ccc(F)cc2)C1 (stereo not drawn),inactive,
CCOc1ccc(CNC(=O)c2ccc3c(c2)sc2nc(-c4ccccc4)cn23)cc1,"inconclusive: 31.6 µM [activator, single point]",
CNC(=O)c1ccc2nc(CCc3ccccc3)oc2c1,"inconclusive: 4.47 µM [activator, partial curve]",
COc1ccc(NCc2cc3cc4c(cc3n(CC(=O)Nc3cccc(F)c3)c2=O)OCO4)cc1,,inconclusive: 35.8% [activator]
O=C(Nc1noc2ccccc12)c1c(F)cccc1F,"inconclusive: 0.891 µM [activator, partial curve, poor fit]",
O=C(Nc1cc(F)ccc1F)c1ccc2c(c1)nnn2C1CCCC1,"inconclusive: 3.55 µM [activator, full curve]",
Cc1ccc2nc(-c3ccc(NC(=O)C(F)(F)F)cc3)sc2c1,inactive,
CCOCCCNC(=O)c1cc2c(=O)n3ccccc3nc2s1,"inconclusive: 22.4 µM [activator, partial curve, poor fit]",
COc1ccc(N2CCN(C(=O)c3ccc(NC(=O)c4nsc5ccccc45)cc3)CC2)cc1,"inconclusive: 0.398 µM [activator, full curve, poor fit]",
N#Cc1ccc(NC(=O)c2ccc3c(c2)nnn3C2CCCC2)cc1,,inconclusive: -14.6% [activator]
COc1ccc(Nc2oc(-c3ccc(COc4ccccc4)o3)nc2C#N)cc1,inactive,
Oc1cccc(Nc2cc(-c3ccccc3)ncn2)c1,"inconclusive: 31.6 µM [activator, single point]",
COc1c(Cl)cc(Cl)cc1/C=C(\C#N)c1nc(-c2ccc(Cl)cc2)cs1,,inconclusive: -55.4% [activator]
COC(=O)C1=C(C)NC(C)=C(C(=O)OCC(C)=O)C1c1ccccc1[N+](=O)[O-] (stereo not drawn),"inconclusive: 31.6 µM [activator, single point]",
CC(CNC(=O)c1csc2c1CCCCC2)c1ccccc1 (stereo not drawn),"inconclusive: 1.78 µM [activator, full curve, poor fit]",
CC(NC(=O)c1cccc(NC(=O)c2nsc3ccccc23)c1)c1ccccc1 (stereo not drawn),"inconclusive: 0.891 µM [activator, partial curve, poor fit]",
COc1ccc(C(=O)Nc2ccc3oc(-c4ccc(OC)cc4)nc3c2)cc1,"inconclusive: 14.1 µM [activator, partial curve]",
CCCC(=O)Nc1cc(-c2nc3cccnc3s2)ccc1C,"inconclusive: 22.4 µM [activator, single point]",
CCOC(=O)CNC(=O)c1cc2c(=O)n3cccc(C)c3nc2s1,"inconclusive: 6.31 µM [activator, partial curve, poor fit]",
COc1cccc(C2CC(=O)Nc3c2c(=O)nc2c(C)cccn32)c1 (stereo not drawn),,inconclusive: -37.1% [activator]
